Laboratory results from the supplement of paper PMC3334620.
In all, about 33,000 sequences were measured (“E-score (-0.5 to 0.5)”: median about -0.012, highest 2% from about 0.27 on). The list shows a part of the results.

These sequences were tested against T1, Vhr1 (UniProt P40522) (assay: PBM E-score (8-mer binding enrichment) (E-score (-0.5 to 0.5)); higher = stronger / more preferred TF binding; most listed sequences are background and not binding sites). Settings: protein concentration: 200 nM; construct: GST-full length.
T1 sequence: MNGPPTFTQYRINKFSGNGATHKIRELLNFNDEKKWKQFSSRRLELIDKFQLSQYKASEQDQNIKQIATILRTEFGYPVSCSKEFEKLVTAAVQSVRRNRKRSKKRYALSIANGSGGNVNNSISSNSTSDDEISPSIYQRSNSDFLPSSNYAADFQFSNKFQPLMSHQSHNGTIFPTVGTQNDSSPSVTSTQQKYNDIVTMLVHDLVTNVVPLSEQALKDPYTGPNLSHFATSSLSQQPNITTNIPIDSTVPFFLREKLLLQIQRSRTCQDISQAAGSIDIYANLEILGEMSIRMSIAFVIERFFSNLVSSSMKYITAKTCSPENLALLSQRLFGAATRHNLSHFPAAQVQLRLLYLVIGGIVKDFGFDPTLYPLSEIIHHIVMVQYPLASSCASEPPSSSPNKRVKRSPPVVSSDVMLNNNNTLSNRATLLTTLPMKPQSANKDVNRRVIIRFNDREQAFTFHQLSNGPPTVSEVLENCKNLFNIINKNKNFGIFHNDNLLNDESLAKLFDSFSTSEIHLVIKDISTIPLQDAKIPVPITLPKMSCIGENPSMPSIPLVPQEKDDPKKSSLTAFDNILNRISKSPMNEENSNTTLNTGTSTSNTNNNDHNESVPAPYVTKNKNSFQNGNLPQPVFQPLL
Outline: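 PURExpress in vitro transcription/translation supplied GST-tagged yeast transcription factors, either full-length or DNA-binding domain. Applied at about 100-200 nM to universal all-10-mer Agilent arrays double-stranded by primer extension, the bound protein was detected with fluorescent anti-GST. E-scores, modified Wilcoxon-Mann-Whitney statistics, were given by the Universal PBM Analysis Suite to ungapped eight-base words pooled with their reverse complements after masliner normalisation.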

Sequence | PBM E-score
ATTCTAGA | -0.0371
ACGTCGTA | -0.251
GCAAGACA | -0.242
GTTAATAA | 0.0193
CTGTCGAC | 0.00438
CCACGGCG | 0.0427
TGGCCCAA | -0.248
GTGAGTGA | 0.245
ACCCTAAC | -0.0674
ATCGTTTG | 0.0348
AATGATAG | 0.162
GCCAAAGC | -0.168
GACTACAC | 0.315
ATCGCAGA | 0.00975
ACTAAGCG | 0.0112
CACGGCAA | -0.0477
CACAGGGC | -0.0909
AACATCAG | 0.00809
TACGGAAA | -0.141
CGTGCCCA | -0.067
AAATGGTC | -0.104
TACCGACA | 0.158
ATCTCAGC | -0.0544
AAAGCCAT | -0.0236
CGCATTCC | -0.137

Sequence | PBM E-score
GGTCAGGA | 0.0179
GGATAGCA | 0.0477
CTTCCTAC | -0.352
CTGTTAGA | -0.168
GGGTCTAC | -0.00895
CACGGATC | 0.189
ACCTAAAT | 0.0108
CTAACTTA | -0.153
GAACCAGC | 0.0571
ATAGTGTG | 0.264
GCACCTGC | -0.00774
CACTATTC | -0.00366
CATGCACG | -0.132
AAGGATGA | 0.157
AAGTTCGG | -0.155
AAGAGATG | -0.0141
CTGGACCA | -0.069
TGTCAGAA | -0.0701
GCTACAAA | -0.0951
ACGTTGAA | -0.0769
ATGCAACC | 0.0513
AGACGTTA | -0.167
GACCTTGA | -0.132
AGGTAGGG | 0.0497
AAACATCA | 0.0589

Sequence | PBM E-score
AGAATTCC | -0.103
GGTGCCAA | -0.00979
ACACTTGG | 0.0977
ATCGGCTC | 0.0969
ACTTCGAG | -0.112
CGCCGCTC | 0.00899
ATGATATC | 0.0491
ATGAGCCA | 0.271
CCCCACGC | -0.213
CAGGGATC | -0.0171
GACAAATA | 0.00451
AGGACTCG | 0.167
TGATTGCA | 0.194
ACCCGCAC | 0.165
CAGACGGG | -0.00878
AGGATTGC | -0.0582
AAATCCCG | -0.0961
CGAGAATC | -0.11
ATCGACCA | -0.13
ACACAATC | 0.0721
CCCGCCTA | 0.164
GGATTAAC | 0.0936
AATAAGAC | -0.158
CGTCTAGC | -0.214
AAGCCCGA | -0.0873

Sequence | PBM E-score
TCCGAGCA | 0.0459
ACCTAGCA | -0.0226
CCAAAGGC | -0.19
AAGATATG | 0.209
GAAGGCAA | -0.141
CGTAGTAA | -0.095
AATCCAGG | 0.0824
AATGCGAT | 0.05
ACAGACGA | 0.0948
GAGTGGAA | -0.127
AGGGCCAA | -0.299
ACGTCAGC | 0.0686
AGCCAATC | 0.0205
GCTATGAC | 0.201
CCGTCACG | -0.0793
CTGGTCGA | -0.119
GATAGTTA | 0.109
AATTCGAA | -0.184
CTAGCTCA | 0.0283
CATGGATC | 0.124
AGTATGCC | -0.0269
AGGAGCAA | 0.0404
CACGTGAG | -0.0791
GCCCGATA | -0.144
CCGCAAAG | -0.00457

Sequence | PBM E-score
ACGGTTTC | -0.206
GCACATAC | -0.106
ACGTCTCA | 0.0563
GATCTCCC | -0.0243
ACAACAAT | 0.164
ATGCAGTC | 0.184
CACCCGAG | 0.0487
ACTTGGCT | 0.0651
AGCTATTC | -0.148
GGCGCTCA | -0.104
CTAACAGA | 0.0269
AGCGACTC | 0.314
GTGGTGTA | 0.0926
GCTAGTCA | 0.284
CGCAGAGA | -0.0714
GGTGAAAA | -0.0982
AATAAATA | 0.024
AGCTCCTG | -0.0876
AATAAAGG | -0.136
TGAGTTAA | 0.027
CCCAAGAG | -0.121
AGGGCACC | -0.229
AGAAGCCG | -0.108
CATCAAGA | 0.113
AACGTAAC | 0.0955

Sequence | PBM E-score
AAAAGTCT | -0.325
TGAATACA | 0.0447
CAAAATAG | -0.267
AGCATGGA | 0.112
AGCGACAG | 0.0678
TACGGCGA | 0.0569
GTACAATA | -0.0957
AGAGCATC | -0.131
GGCGGCGA | 0.126
CCGAGTAC | 0.102
CCTATAAC | -0.0758
AAGTCGTA | -0.0973
ATATATCG | 0.137
GGGGGCAA | -0.138
ACTCCCTG | 0.276
CAGACCTC | -0.0287
CAGGGCAA | -0.216
AGTCAACA | 0.19
CGTTATAC | -0.192
CCTCGGCC | 0.00422
ACACCCAC | 0.254
CAAATAAG | -0.203
AGTAACTA | 0.158
ATTAGATG | 0.00509
CATTCAAC | -0.00493

Sequence | PBM E-score
TAAGGGAA | -0.177
CATCCGGC | 0.0747
TTAAAGAA | -0.123
ATACTCTA | 0.00935
GTCGCCGA | -0.0286
AACCCGTC | -0.193
GCAGTAAC | 0.00755
ACTTCAAC | -0.127
GAGACACA | 0.14
AAAAACTA | -0.0842
TCACTAGA | 0.0881
CTTAGTCC | 0.0119
TAGCCGAA | -0.0303
TACCGCTA | 0.0257
CGTGTGGA | -0.0696
AGAACCGC | 0.0727
AGACACTC | 0.00724
CAGTAATG | 0.0368
ACCGCCTC | -0.0119
AAGGCAAC | 0.0171
ACGGGACA | 0.00889
CAGATTTA | 0.169
AAGGTCGC | -0.184
ACAGATCT | 0.0459
CTATTCAG | -0.0626

Sequence | PBM E-score
AGAGGGGC | -0.188
GCTGTAAC | 0.116
AATCACCC | 0.38
AAAGATAC | 0.0157
GTGCATAA | -0.143
GTGGTCCA | 0.195
ACCAAACT | 0.0251
ACCATGAA | 0.276
AGTTGGCC | -0.0117
GCTTCCAC | -0.181
CGGGCGCC | 0.0834
ATGCCAGA | 0.0397
AATTGAGG | -0.233
AAGATCCT | -0.0308
GCCCAAGA | -0.188
ATATATCA | 0.0989
TACCGCGA | 0.107
GTGAAAGA | -0.0844
CTGACCTC | -0.0456
AGTAGTTG | 0.29
AAATCGTG | 0.0765
GATGTCCA | 0.0381
TGAGTGAA | 0.124
GTAGGGCA | -0.163
ATCCCTTG | -0.0751

Sequence | PBM E-score
CAAGGAAG | -0.117
GAGATACC | 0.0895
ATCAGAAG | -0.106
AGGCAGCG | -0.0538
CACCTCAC | -0.027
CTTGTATC | -0.123
GCCGGACC | 0.0322
ACCAATCT | 0.188
CTGATGAC | 0.19
GCGGATGA | 0.15
ATACAATA | 0.249
ACCCTCGC | -0.113
CATGAGAG | 0.147
AGGCGTTG | -0.216
ACACCTCC | 0.0644
GTGGATCA | 0.0417
AAAAAACG | -0.173
AACCTCCC | -0.0164
CGGTGATA | 0.0139
